Here are results for 35 variants from the supplement of paper PMC7125110.

± gives the standard error. This sample is rich in variants without activity.

B1: glmS ribozyme (parent)
chain: AUAAAAGCGCCAGAACUACAGAAAUGUAGUUGACGAGGAGGAGGUUUAUCGAAUUUUCGGCGGAUGCCUCCAAA

The variants in one series derive from B1. In words: self-cleavage kobs at 2500 uM GlcN6P; higher = faster cleavage; RNA array. The note with it: with glucosamine-6-phosphate. In a few lines:
(§1)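 Barcoded ribozyme variants were transcribed in situ on sequenced MiSeq chips by E. coli RNA polymerase. At 37 °C, a hybridised Cy3 probe tracked them while glucosamine-6-phosphate (40 μM to 10 mM) in HEPES/KCl/Mg(OAc)2 buffer flowed in and tiles were imaged over ~14 h. Per-tile medians of signals normalised to baseline and to non-cleaving reference variants were fit to one- or two-exponential decays, giving kobs. kcat and KM came from weighted Michaelis–Menten fits across concentrations.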
With AUAAAAGCGCCAGAACUACAGAAAUGUAGUUGACGAGGAGGAGGUUUAUCGAAUUUCCGGCGGAUGCUUCCAAA [U57C C68U], the “self-cleavage kobs at 2500 uM GlcN6P” value worked out at 3.96e-05 ± 1.4e-05 s⁻¹.

In the case of AUAAAAGCGCCAGAACUACAGAAAUGUAGUUGACGAGGAGGAGGUUUAUCGAAUUGUCGGCGUAUGCCUCUAAA [U56G G63U C71U], the “self-cleavage kobs at 2500 uM GlcN6P” value is less than 1e-05 s⁻¹.

Consider AUAAAAGCGCCAGAACUACAGAAAUGUAGUUGACGAGGAGGAGGUUUAUCGCAUUGUCGGCGGGUGCCUCCAAA [A52C U56G A64G], for which the “self-cleavage kobs at 2500 uM GlcN6P” value is less than 1e-05 s⁻¹.

On to AUAAAAGCGCCAGAACUACAGAAAUGUAGUUGACGAGGAGGAGGUUUAUCGAGUUUUCGGGAGAUGCCUCCAAA [A53G C61G G62A], for which the “self-cleavage kobs at 2500 uM GlcN6P” value is less than 1e-05 s⁻¹.

For the variant AUAAAAGCGCCAGAACUACAGAAAUGUAGUUGACGAGGAGGAGGUUUAUUGAAUUUUCGUCGGCUGCCUACAAA [C50U G60U A64C C70A], the “self-cleavage kobs at 2500 uM GlcN6P” value was less than 1e-05 s⁻¹.

In the case of AUAAAAGCGCCAGAACUACAGAAAUGUAGUUGACGAGGAGGAGGUUUACCGAAUUUUCGUCGGAUGCCUUCAAA [U49C G60U C70U], the “self-cleavage kobs at 2500 uM GlcN6P” value was less than 1e-05 s⁻¹.

In the case of AUAAAAGCGCCAGAACUACAGAAAUGUAGUUGACGAGGAGGAGGUUUAUCGUAUUUUCGCCGGAUGCUUCCAAA [A52U G60C C68U], the “self-cleavage kobs at 2500 uM GlcN6P” value was less than 1e-05 s⁻¹.

Consider AUAAAAGCGCCAGAACUACAGAAAUGUAGUUGACGAGGAGGAGGUUUAUCGAAUUGUCGGCGGAUCCCUCUAAA [U56G G66C C71U], for which the “self-cleavage kobs at 2500 uM GlcN6P” value is 0.000269 ± 5.5e-05 s⁻¹.

Consider AUAAAAGCGCCAGAACUACAGAAAUGUAGUUGACGAGGAGGAGGUUUAUCGCAGUUUCGGCGAAUGCCUCCAAA [A52C U54G G63A], for which the “self-cleavage kobs at 2500 uM GlcN6P” value was less than 1e-05 s⁻¹.

Take AUAAAAGCGCCAGAACUACAGAAAUGUAGUUGACGAGGAGGAGGUUUGUCGAAUUUUCGCCGUAUGCCUCCAAA [A48G G60C G63U]: the “self-cleavage kobs at 2500 uM GlcN6P” value was less than 1e-05 s⁻¹.

For the variant AUAAAAGCGCCAGAACUACAGAAAUGUAGUUGACGAGGAGGAGGUUUAUGGAAUUGUCUGCGGAUGCCUCCAAA [C50G U56G G59U], the “self-cleavage kobs at 2500 uM GlcN6P” value came out at 8.66e-05 ± 3.9e-05 s⁻¹.

Turning to AUAAAAGCGCCAGAACUACAGAAAUGUAGUUGACGAGGAGGAGGUUUAUCGAAUUUUCGGCGGAUGCCAACAAA [U69A C70A], the “self-cleavage kobs at 2500 uM GlcN6P” value was 4.37e-05 ± 1.1e-05 s⁻¹.

As to AUAAAAGCGCCAGAACUACAGAAAUGUAGUUGACGAGGAGGAGUGUUAUCGAAUUUUCGGCGGAUGCCUUCAAA [G44U U45G C70U], the “self-cleavage kobs at 2500 uM GlcN6P” value is 0.000791 ± 0.00023 s⁻¹.

AUAAAAGCGCCAGAACUACAGAAAUGUAGUUGACGAGGAGGAGUUUUAUCGACUUUUCGGCGCAUGCCUCCAAA [G44U A53C G63C]: the “self-cleavage kobs at 2500 uM GlcN6P” value was less than 1e-05 s⁻¹.

Consider AUAAAAGCGCCAGAACUACAGAAAUGUAGUUGACGAGGAGGAGGUUUAUCGAAUUUUCGGCUGAGGUCUCCAAA [G62U U65G C67U], for which the “self-cleavage kobs at 2500 uM GlcN6P” value was less than 1e-05 s⁻¹.

Variants of B1 are the subject of a further series. Nature of the series: self-cleavage kobs at 10000 uM GlcN6P; higher = faster cleavage; RNA array. The note with it: with glucosamine-6-phosphate. In a few lines: as §1
As to AUAAAAGCGCCAGAACUACAGAAAUGUAGUUGACGAGGAGGAGGUUUAUCGAAUUUCCGGCGGAUGCUUCCAAA [U57C C68U], the “self-cleavage kobs at 10000 uM GlcN6P” value stood at 5.36e-05 ± 6e-06 s⁻¹.

For AUAAAAUCGCCAGAACUACAGAAAUGUAGUUGACGAGGAGAAGGUUUAUCGAAUUUGCGGCGGAUGCCUCCAAA [G7U G41A U57G], the “self-cleavage kobs at 10000 uM GlcN6P” value is less than 1e-05 s⁻¹.

For AUAAAAGCGCCAGAACUACAGAAAUGUAGUUGACGAGGAGGAGGUUUAUCGAAUUGUCGGCGUAUGCCUCUAAA [U56G G63U C71U], the “self-cleavage kobs at 10000 uM GlcN6P” value is less than 1e-05 s⁻¹.

As to AUAAAAGCACCAGAACUACAGAAAUGUAGUUGACGAGGAGGAGGUUUAUCGAAUUUUUGGCGGAUGCCUCUAAA [G9A C58U C71U], the “self-cleavage kobs at 10000 uM GlcN6P” value is less than 1e-05 s⁻¹.

With AUAAAAGCAGCAGAACUACAGAAAUGUAGUUGACGAGGAGGAAGUUUAUCGAAUUUUCGGCGGAUGCCUGCAAA [G9A C10G G43A C70G], the “self-cleavage kobs at 10000 uM GlcN6P” value was less than 1e-05 s⁻¹.

AUAAAAACGCCAGAACUACAGAAAUGUAGUUGACGAGGCGGAGGUUUAUCGAAUUUUGGGCGGAUGCCUCCAAA [G7A A39C C58G]: the “self-cleavage kobs at 10000 uM GlcN6P” value is less than 1e-05 s⁻¹.

AUAAAAGCGUCAGCACUACAGAAAUGUAGUUGACGAGGACGAGGUUUAUCGAAUUUUCGGCGGAUGCCUCCAAA [C10U A14C G40C]: the “self-cleavage kobs at 10000 uM GlcN6P” value was less than 1e-05 s⁻¹.

Regarding AUAAAAGGGCCAGAACUACAGAAAUGUAGUUGAUGAGGCGGAGGUUUAUCGAAUUUUCGGCGGAUGCCUCCAAA [C8G C34U A39C], the “self-cleavage kobs at 10000 uM GlcN6P” value was less than 1e-05 s⁻¹.

Consider AUAAAAGUGCCAGAACUACAGAAAUGUAGUUGACGAGGAGGAGUUAUAUGGAAUUUUCGGCGGAUGCCUCCAAA [C8U G44U U46A C50G], for which the “self-cleavage kobs at 10000 uM GlcN6P” value is less than 1e-05 s⁻¹.

For AUAAAAGCGCAAGAGCUACAGAAAUGUAGUUGACGAGGAGGAGGUUUAUCGAAUUUACGGCUGAUGCCUCCAAA [C11A A15G U57A G62U], the “self-cleavage kobs at 10000 uM GlcN6P” value is less than 1e-05 s⁻¹.

Consider AUAAAAGAGCCAGAACUACAGAAAUGUAGUUGACCAGGAGGAGGUUUAUCGAUUUUUCGGCGGAUGCCUCCAAA [C8A G35C A53U], for which the “self-cleavage kobs at 10000 uM GlcN6P” value is less than 1e-05 s⁻¹.

For AUAAAAUCGCCAGAACUACAGAAAUGUAGUUGACGAGGUGGAAGUUUAUCGAAUUUUCGGCGGAUGUCUCCAAA [G7U A39U G43A C67U], the “self-cleavage kobs at 10000 uM GlcN6P” value was less than 1e-05 s⁻¹.

As for AUAAAAUCGCCAGAACUACAGAAAUGUAGUUGAUCAGGAGAAGGUUUCUCGAAUAUUCGGCGGAUGCCUCCAAA [G7U C34U G35C G41A A48C U55A], the “self-cleavage kobs at 10000 uM GlcN6P” value was less than 1e-05 s⁻¹.

As for AUAAAAGCGCCAGAACUACAGAAAUGUAGUUGACGAGGAGGAGGUUUAUCGAAUUUUCGGCGGAUGCCAACAAA [U69A C70A], the “self-cleavage kobs at 10000 uM GlcN6P” value stood at 3.27e-05 ± 9.4e-06 s⁻¹.

For AUAAACGCGCCAGAACUACAGAAAUGUAAUUGAUGAGGAGGAUUUUUAUCGAAUUUUCGGCGGAUGCCUCCAAA [A6C G29A C34U G43U G44U], the “self-cleavage kobs at 10000 uM GlcN6P” value was less than 1e-05 s⁻¹.

For the variant AUAAAAGCGUCACAACUACAGAAAUGUAUUUGACGGGGAGGAGGUUUAUCGAAUUUUCGGCGGAUGCCUUCAAA [C10U G13C G29U A36G C70U], the “self-cleavage kobs at 10000 uM GlcN6P” value is less than 1e-05 s⁻¹.

With AUAAAGGCGCCAGAUCUACAGAAAUGUAGUGGACCAGGAGGAGGUUUAUCGAAUUUUCGGCGGAUACCUCCAAA [A6G A15U U31G G35C G66A], the “self-cleavage kobs at 10000 uM GlcN6P” value was less than 1e-05 s⁻¹.

Regarding AUAAAAGGGCCAGGACUACAGAAAUGUAGUUGACGAGGAGAAGGUUUAUCGAAUUUUCGGCGGAUGCCUCCAAA [C8G A14G G41A], the “self-cleavage kobs at 10000 uM GlcN6P” value is less than 1e-05 s⁻¹.

AUAAAAGUUCCAGAACUACAGAAAUGUAGUUGACGAGGAGGAAGUUUAUCGAAUUUUCGGCGGAUGCCUCCAAA [C8U G9U G43A]: the “self-cleavage kobs at 10000 uM GlcN6P” value is less than 1e-05 s⁻¹.

With AUAAAAGCGCACGAACUACAGAAAUGUAGUCGACGAGGAGGAGGUUUAACGAAUUUUCGGCGGAUGCCUCCAAA [C11A A12C U31C U49A], the “self-cleavage kobs at 10000 uM GlcN6P” value is less than 1e-05 s⁻¹.

AUAAAACCGCCAGAACUACAGAAAUGUAGUUGACGAGGAGGAGGUUUAUCGAAUUUUUGGCGGAUGCCUCUAAA [G7C C58U C71U]: the “self-cleavage kobs at 10000 uM GlcN6P” value is less than 1e-05 s⁻¹.

Turning to AUAAAAGCUCCAGAACUACAGAAAUGUAGUUAACGAGGAGGAGGUUUAUCGAAUCUUCGGCGGAUGCCUCCAAA [G9U G32A U55C], the “self-cleavage kobs at 10000 uM GlcN6P” value was less than 1e-05 s⁻¹.

For the variant AUAAAACCGCCAGAACUACAGAAAUGUAGUUGACGAGGAGGAGGUUUAUCGAAUUCUCGGCGGAUGCCUCCAAA [G7C U56C], the “self-cleavage kobs at 10000 uM GlcN6P” value was less than 1e-05 s⁻¹.
